Measured values published in PubChem BioAssay AID588855 (National Center for Advancing Translational Sciences (NCATS), 2011).
About 5,000 (1.2%) of roughly 410,000 compounds were called active. Inconclusive means that the source gave no clear call. Such entries were picked first, then a sample of the others. Calls follow the shape of the dose curve; as a rule, active = well fitted inhibition curve with a large enough effect; inconclusive = small, poorly fitted or top-dose-only effect; inactive = no such curve, though single readings can be large or run the other way. Potencies beside an inconclusive call are fits to weak or partial responses and may not hold up.

assay: qHTS for Inhibitors of TGF-b; conditions: HepG2 CAGA-GFP TGF-b/SMAD3 reporter, GFP fluorescence, 18 h, TGF-beta stimulated, 500 pg/mL final; series mostly up to 46.1 µM; also: nearly all actives have a fitted effect of over 65% in size
How it was run: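 GFP signal (ex488/em500-530) from TGF-beta-stimulated HEPG2 CAGA-GFP cells, 500 pg/mL final, 18 h at 37 degrees C in DMEM plus 1% FBS, normalized to unstimulated and DMSO-stimulated controls.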
Potency is read from the fitted curve at half-maximal effect; tags tell the direction and shape of the fitted curve.

| Compound | Potency |
| --- | --- |
| CC(C)(C)OC(=O)C[C@H]1C/C=C\C[C@@H](CC(=O)N(CCO)Cc2ccccc2)C(=O)N[C@H](C(C)(C)C)COC1=O | inactive |
| Cc1nc(SCC(=O)Nc2c(C)nn(C)c2C)c2cnn(-c3ccccc3)c2n1 | inconclusive: 35.5 µM [inhibitor, single point] |
| Clc1ccc(/C=C/c2ccncc2)cc1Cl | inconclusive: 35.5 µM [inhibitor, single point] |
| Cc1cc2cc(OCc3ccccc3)ccc2n1C | inconclusive: 20 µM [inhibitor, single point] |
| C[C@@H](O)C1NC(=O)[C@H](CCCCN)NC(=O)c2cc([N+](=O)[O-])cc(F)c2NCCCC[C@@H](C(N)=O)NC1=O (some centres undefined) | inconclusive: 6.31 µM [inhibitor, single point] |
| O=c1ccc2ccc(O[C@@H]3O[C@H](CO[C@@H]4OC[C@](O)(CO)[C@H]4O)[C@@H](O)[C@H](O)[C@H]3O)cc2o1 | inconclusive: 12.6 µM [inhibitor, partial curve, poor fit] |
| Cc1ccc(C(=O)Oc2coc(CSc3nnc(NC(=O)C4CC4)s3)cc2=O)cc1 | inconclusive: 0.224 µM [inhibitor, full curve, poor fit] |
| C=CCC[C@H](Cc1ccc(F)cc1)C(=O)OC[C@@H](NC(=O)[C@@H](CC=C)CC(=O)N[C@@H](CO)Cc1ccccc1)C(C)(C)C | inconclusive: 31.6 µM [inhibitor, single point] |
| CN(CC(=O)Nc1ccc(Cl)c(C(F)(F)F)c1)C(=O)Cc1ccsc1 | inactive |
| CC1CCc2nc3ncn(Cc4ccccc4F)c(=O)c3cc2C1 (centres undefined) | inactive |
| Cc1cc(=O)oc2c(C)c(OCC(=O)NC3CCN(Cc4ccccc4)CC3)ccc12 | inactive |
| O=C(Nc1ccc(OCc2cc(=O)n3c4c(sc3n2)CCCC4)cc1)c1ccccc1 | inactive |
| Clc1ccc(-c2nc(NCCCN3CCOCC3)c3ccccc3n2)cc1 | inconclusive: 20 µM [inhibitor, single point] |
| CCCCn1c(=N)n(CC(O)COc2ccc(C)cc2)c2ccccc21 (centres undefined) | inconclusive: 22.4 µM [inhibitor, single point] |
| O=C(/C=C/c1ccc(-c2ccccc2[N+](=O)[O-])o1)c1ccccc1 | inconclusive: 35.5 µM [inhibitor, single point] |
| CCOc1ccc(OCC)c(NS(=O)(=O)c2c(C(=O)N3CCC(C)CC3)c(C)n(C)c2C)c1 | inconclusive: 1.41 µM [inhibitor, partial curve] |
| CN(C[C@H](Cc1ccccc1)N(C[C@H](Cc1ccccc1)N(CCc1cc(C(F)(F)F)cc(C(F)(F)F)c1)N=O)N=O)N=O | inconclusive: 0.224 µM [inhibitor, full curve, poor fit] |
| COc1ccc(N2CC(NC(=O)c3ccc4c(c3)OCO4)CC2=O)cc1 (centres undefined) | inactive |
| Cc1ccc(NC(=S)N2CCC(c3nc4ccccc4s3)CC2)cc1C | inconclusive: 10 µM [inhibitor, single point] |
| COc1ccccc1N1CCN(c2nc(-c3ccc(C)cc3)nc3ccccc23)CC1 | inactive |
| CCSC1=N/C(=C/c2ccsc2)C(=O)N1c1ccccc1 | inconclusive: 35.5 µM [inhibitor, partial curve, poor fit] |
| C=CCNC(=S)Nc1cccc(NC(=S)NCC=C)c1 | inconclusive: 14.1 µM [inhibitor, single point] |

| Compound | Potency |
| --- | --- |
| CCNC(=S)N1CCN(c2nc(CC)nc3sc4c(c23)CCCC4)CC1 | inconclusive: 25.1 µM [inhibitor, single point] |
| Clc1ccc(CSc2ncn[nH]2)cc1 | inconclusive: 35.5 µM [inhibitor, single point] |
| Cn1cc(C(=O)N2CCN(c3cccc(C(F)(F)F)c3)CC2)c2c3ccccc3n(C)c2c1=O | inconclusive: 35.5 µM [inhibitor, single point] |
| Cc1ccc(S(=O)(=O)Nc2ccccc2N2CCCCC2)cc1 | inconclusive: 10 µM [inhibitor, partial curve, poor fit] |
| CCCCC(=O)NC(c1ccc(C(C)C)cc1)c1ccc2cccnc2c1O (centres undefined) | inconclusive: 7.08 µM [inhibitor, partial curve, poor fit] |
| COc1ccc(NC(=O)C(=O)NCC(c2ccco2)N2CCc3ccccc3C2)cc1OC (centres undefined) | active: 2.51 µM |
| N#CCc1ccc(-c2cccc3nccn23)cc1 | inactive |
| O=C(O)CCn1cnc2onc(-c3cc(F)cc(F)c3)c2c1=O | inconclusive: 0.224 µM [inhibitor, full curve, poor fit] |
| Cc1cccc(NC(=O)c2cnc3ccccn3c2=O)c1 | inactive |
| C=CCn1c(Cc2ccccc2)nc2c(cnn2-c2ccccc2)c1=O | inconclusive: 35.5 µM [inhibitor, single point] |
| NC(=O)c1cc(-c2ccccc2)sc1NC(=O)CN1CCCCC1 | inconclusive: 35.5 µM [inhibitor, single point] |
| Nc1c(C(=O)CSc2n[nH]c(-c3ccccc3Br)n2)c(=O)[nH]c(=O)n1C1CC1 | inactive |
| Clc1ccc(OCc2nnc(SCc3nc4ccccc4[nH]3)n2Cc2ccco2)cc1 | inconclusive: 10 µM [inhibitor, partial curve, poor fit] |
| Cc1nn(C(C)(C)C)c(OC(=O)C(C)(C)C)c1Sc1ccccc1 | inconclusive: 12.6 µM [inhibitor, single point] |
| COc1cc(NC(=O)COCc2cc(-c3ccc(F)cc3)on2)cc(OC)c1OC | inconclusive: 3.98 µM [inhibitor, full curve] |
| COc1cccc(C(=O)N2C(C(=O)O)CSC2c2ccccc2Cl)c1 (centres undefined) | inactive |
| Cc1cc(NC(=O)C2CC(=O)N(c3cccc(Cl)c3)C2)no1 (centres undefined) | inactive |
| c1ccc(Oc2cnc3ccccc3n2)cc1 | inconclusive: 6.31 µM [inhibitor, single point] |
| O=Cc1cccc(C=O)c1 | inactive |
| C#CCOCCOCCOCCNc1nc(N2CCN(C(=O)[C@H](Cc3ccc(O)cc3)n3cc([C@@H](N)C(C)CC)nn3)CC2)nc(N2CCN(C(=O)[C@H](Cc3cc4ccccc4[nH]3)n3cc([C@@H](N)CC(C)C)nn3)CC2)n1 (some centres undefined) | inconclusive: 5.01 µM [inhibitor, partial curve, poor fit] |
| COc1cccc(NC(=O)C(Cc2ccccc2)n2cccc2)c1 (centres undefined) | inconclusive: 15.8 µM [inhibitor, single point] |
| CCN1CCN(C(=O)c2cc3cc4cc(OC)ccc4nc3s2)CC1 | inconclusive: 0.794 µM [inhibitor, full curve, poor fit] |

| Compound | Potency |
| --- | --- |
| Cc1ccc(C(C[N+](=O)[O-])c2c(N)n(C)c(=O)n(C)c2=O)cc1 (centres undefined) | inconclusive: 35.5 µM [inhibitor, single point] |
| Cc1ccc(N2C(=O)[C@@H]3CSC(c4ccc(F)cc4)N3C2=O)cc1 (some centres undefined) | inconclusive: 22.4 µM [inhibitor, single point] |
| CCOc1ccc(/C(C)=N/N2C(=O)C(CC(=O)Nc3ccc(OC)cc3[N+](=O)[O-])SC2=Nc2cccc(C)c2C)cc1 (centres undefined) | inconclusive: 2.82 µM [inhibitor, single point] |
| Cc1ccccc1-n1ncc2c1CC(C)(C)CC2NC(=O)CCn1cncn1 (centres undefined) | inconclusive: 35.5 µM [inhibitor, partial curve, poor fit] |
| COc1cccc(CN2CCC2(C)C(=O)Nc2cccc(NS(C)(=O)=O)c2)c1OC (centres undefined) | inactive |
| O=C(Cc1ccc(Br)cc1)Nc1ncc([N+](=O)[O-])s1 | inconclusive: 10 µM [inhibitor, partial curve, poor fit] |
| CSc1ccc(CNC(=O)c2ccc(NC(=O)c3nsc4ccccc34)cc2)cc1 | inconclusive: 35.5 µM [inhibitor, single point] |
| COc1ccc(Cn2c(=O)c3oc4ccccc4c3n(Cc3cccc(C)c3)c2=O)cc1 | inactive |
| CN(C)C(CNC(=O)c1cccc(S(=O)(=O)N2CCN(c3ccc(F)cc3)CC2)c1)c1ccccc1 (centres undefined) | inconclusive: 3.98 µM [inhibitor, partial curve, poor fit] |
| Cc1cccc2c(=O)cc(CSc3ccccc3NC(=O)c3cccc(F)c3)[nH]c12 | inactive |
| C[C@@H]1CC=C[C@H]2[C@H]1C(=O)N(Cc1ccccc1)[C@H]2c1ccc(Br)cc1F | inconclusive: 8.91 µM [inhibitor, partial curve, poor fit] |
| C#CCCc1ccccc1/C=[N+](/C)[O-] | active: 15.8 µM |
| COc1cccc(CNC(=O)CSc2c3c(nc4cc(Cl)ccc24)CCCC3)c1 | inconclusive: 11.2 µM [inhibitor, partial curve, poor fit] |
| CCCCCc1cc(=O)c2ccccc2o1 | inconclusive: 20 µM [inhibitor, single point] |
| NC(=O)c1ccsc1NC(=O)CN1CCN(S(=O)(=O)c2ccccc2C(F)(F)F)CC1 | inconclusive: 35.5 µM [inhibitor, single point] |
| O=C(Cn1c(NCCO)nc2ccccc21)NCCc1ccccc1 | inconclusive: 6.31 µM [inhibitor, single point] |
| COc1ccc(C)cc1N(C(=O)c1snc(C(N)=O)c1N)C(C(=O)NC1CCCCC1)c1ccc(C)o1 (centres undefined) | inconclusive: 14.1 µM [inhibitor, single point] |
| O=C(CSc1ccc(Br)cc1)N1CCN(S(=O)(=O)c2ccccc2)CC1 | inactive |
| CCN(CC)CCn1c(=S)[nH]c2cc(C(=O)NCc3ccccc3)ccc2c1=O | inconclusive: 5.62 µM [inhibitor, single point] |
| Cc1cc(C)c(S(=O)(=O)c2ccc(Cl)cc2)c(Cl)n1 | inactive |
